Source: the RNAGym collection of RNA variant scans (doi:10.1073/pnas.2313332121)
Variants at the floor of the assay are shown more often than the library holds them.

B1: TPR 5TU (parent)
chain: GGAUCUUCUCGAUCUAACAAAAAAGACAAAUCUGCCACAAAGCUUGAGAGCAUCUUCGGAUGCAGAGGCGGCAGCCUUCGGUGGCGCGAUAGCGCCAACGUUCUCAACUAUGACACGCAAAACGCGUGCUCCGUUGAAUGGAGUUUAUCAUG

Variants of: B1
Experiment: polymerase ribozyme fitness, log enrichment relative to wild type (log ratio); higher = more active; in vitro selection for triplet polymerase activity
In short: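 To select mutant libraries of each subunit of a heterodimeric triplet polymerase ribozyme, built by PCR and transcribed, each was annealed with a biotinylated primer, partner subunit and triplets, then incubated frozen at −7 °C. Extended constructs were gel-excised, captured on streptavidin beads and amplified by RT-PCR, in one round carried out in triplicate. Illumina sequencing of input and output libraries kept genotypes with ≥10 input reads and ≥1 read per output. Fitness is the base-2 logarithm of genotype enrichment relative to wild-type enrichment, from inverse-variance-weighted replicate averages.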

Variant	polymerase ribozyme fitness (log ratio)
A47U C54G G71U C116A A138C	≤ -4.2
A47C C105A	-1.02
A47U C54U G59U C85A U139C	≤ -4.2
A47G A52G G58A A60G G62C U78G G88C	≤ -4.2
G48C C51A C54A C63U G68A U77C G88A C96U A142G	≤ -4.2
A47C G65C C79G C87A	≤ -4.2
G48A G86C U101G A121G	≤ -4.2
G48C C54A C108G C114U C125U U134A C149G	≤ -4.2
G48U C57G C93U G136A U146G	-2.43
A47U C54A C75G G140A	≤ -4.2
G48C C54U C85G U90A A138C	≤ -4.2
A47U C76G G80U A91G A107G C116A	≤ -4.2
A47C G84A A115C C129A	≤ -4.2
G48C G143U	-2.25
G48A U55A	-1.14
G48A C87U A91U C93U	≤ -4.2
G48A G62A A73U A91G C95G U139A A142C	≤ -4.2
A47C C57A G84A U101C	-0.765
G48C A73C C87A C93G G126A	≤ -4.2
G48U A49C G68U G74A C76A G88U C116G	≤ -4.2
G48A A49C C87U C93A A106U G133A	≤ -4.2
A47C C57A G84C G86U U146C C149U	≤ -4.2
G48A A49G G80U C103G G124C U145C	≤ -4.2
A47G C63G G92U C93U	-1.34

Variant	polymerase ribozyme fitness (log ratio)
G48A G83U U134C	-1.42
G48C C87G U111G	≤ -4.2
A47G A89C C95A C103A C108U C131G G133C A138U	≤ -4.2
G48C C85A A142U	≤ -4.2
A47C U56C G68A G74C	≤ -4.2
A47C G65A A66C G86A C105G	≤ -4.2
A47U U56A G94A C118U A121U	-0.95
G48U C69A G83U C103G	≤ -4.2
G48C G62A G68A C93U U109A	≤ -4.2
A47G A52G C87U A98G	-1.52
G48A G86A A89C G94A U151G	≤ -4.2
A47C U56G A91U C96G C118U A122C C131U U139C U148A	≤ -4.2
A47C U53A C85G U139A	≤ -4.2
A47U U77C	-4.09
A47G C57U C75G C76G U77G C93A U127C	≤ -4.2
G48A G65C A73G C85G	≤ -4.2
A47C G84C C93A A106U G136C U144G	≤ -4.2
A47U A49C G50C C57A A73G C87A G124U U146C	≤ -4.2
A47G G50C A115U U127A A147C	≤ -4.2
G48A G62A C96G C105A	≤ -4.2
G48A G83A C95U U127G	≤ -4.2
G48A C54U G94C	-1.21
G48U C93G	-3.47
A47U U55G	-1.03

Variant	polymerase ribozyme fitness (log ratio)
G48U A52G G67A U77C U102G	≤ -4.2
A47C C69G G83A A120C U148A	≤ -4.2
G48A U77C C93U C105A	≤ -4.2
G48C G59A U61A C85U G141A	≤ -4.2
A47C U55A G74U G88C C93G A97G	≤ -4.2
G48A G88A U134C U144G	≤ -4.2
G48C G50U G59U U82A G92C	-3.41
G48A A110U U145G	≤ -4.2
A47U A49C C51U C93A	≤ -4.2
G48U A52C C99U	≤ -4.2
A47G C57U U109G	-0.869
A47C U102G A115U A142G U148A	≤ -4.2
A47C C57A G84U A89C	-1.5
A47G C85G U90C G124U	≤ -4.2
A47G U53A A73U G84C C99A A106U A150C	≤ -4.2
G48A G59C	-0.874
A47G U61A G84A C105A C108U U151A	≤ -4.2
A47C G59A G83A C85A C108G G141U	≤ -4.2
A47C G71C C95G U130C G141C C149A	≤ -4.2
A47G G84U G140U	≤ -4.2
G48U C85A A110U C118U	≤ -4.2
A47U G88A C96U U144A	≤ -4.2
G48C A64G G70U G94U U144G C149A	≤ -4.2
G48A G58C A91C	≤ -4.2

Variant	polymerase ribozyme fitness (log ratio)
G48A C125U G133A	≤ -4.2
G48C U55A C103G	-0.533
A47U C108G	≤ -4.2
A47U G59C C75A A119G U134G	≤ -4.2
A47C G83A C99U A120U	-3.03
G48C G58A A91G	-3.21
A47U A49G U53G C54G C87U	≤ -4.2
G48A C51U C54A U82G A120U	-3.66
G48A G58C A89U A115U C116U U139C	≤ -4.2
A47U C72G C76G G83U U102C G126A C132G A137U	≤ -4.2
G48C G50U C96A G124U U135G	≤ -4.2
G48C C54A U77G G84A G100U	≤ -4.2
G48C C54A G58C C75U U82C G141A U148G	≤ -4.2
A47U G48A C57U G59C G94C G128A	≤ -4.2
A47U A97C	0.501
A47C C87U C105A A119C	-1.51
A47U C54U C114U	-2.94
G48A C85U C95G C96A	≤ -4.2
A47G A49C G74C G92U C125U	≤ -4.2
A47C A91U G124C A150C	≤ -4.2
A47U G50U C75U A89C G100U A106U	≤ -4.2
A47C C79U G83C	≤ -4.2
A47U C96A A97G A122C	-1.28
G48C C79U G80C G100U U139C G152C	≤ -4.2

Variant	polymerase ribozyme fitness (log ratio)
G48C U104G A138U	≤ -4.2
A47U G83U A122U	-0.574
A47C G50U C69G G71C C95G A115G C132A	≤ -4.2
A47C C63A A107G C114A A137U	≤ -4.2
G48A C69G C75G G92U	≤ -4.2
A47C G48U C76G C96U A113C	≤ -4.2
A47C C54U G83U A142G	-2.18
G48A G50A G88U	≤ -4.2
G48A U78G G86A C87G C99U A142C U146G	≤ -4.2
G48U C54A C79G G83U G143A	≤ -4.2
A47C G59C C93G	≤ -4.2
G48C G126U	-0.372
G48C G68A G86C	≤ -4.2
A47G C69A A122G	-3.43
G48C C85U U102G U104A C118U C125A	-4.14
A47C C69A A89G G124A	-3.28
G48A G136U	-2.5
A47G A52U U56A G59U G86C U144G	≤ -4.2
G48A A52U U56A U78A A98U U139C	≤ -4.2
A47C C51U G58C G70A C96U A106U U151C	≤ -4.2
G48A C93G	-3.69
A47G G83C U134A G140U	-4.17
G48A A60U C79G U90G A142C	≤ -4.2
G48A G86C C123A C125G	-3.94

Variant	polymerase ribozyme fitness (log ratio)
G48C G59U C75U C105G U145C	≤ -4.2
G48C G58U C96A U102A C114A	≤ -4.2
A47G G62U A142G U146G	-4.12
A47G G50C G71C G94A U134C	≤ -4.2
A47U G68A G71C C79G	≤ -4.2
G48A C63U G65C C76U A122G G124A	≤ -4.2
G48C G58A C72U C93G A113G C131U U146A	≤ -4.2
G48A A150U	-0.592
A47U G80A A91C	≤ -4.2
A47G C99U	0.0144
A47U G65C C96A A138G G152C	≤ -4.2
A47G G68A C72U G81A A89G U148A	≤ -4.2
A47C G141C U148G	≤ -4.2
A47G A91G A97G A98C U134G U139A	≤ -4.2
A47G C87U C125G G136U U148G C149A	≤ -4.2
G48C G58U C93G G140C	≤ -4.2
A47C G50C G81A U82A A91U G126U C132A A138C	≤ -4.2
G48A G67U G84U C105G	≤ -4.2
G48A C76A C85U C87U C93A	≤ -4.2
G48C C118U	-0.625
G48C A49C A60C C96G A147U	≤ -4.2
G48A C85A C123U U134C	-1.46
A47G G84A G128C	-3.37
A47G C75G G92U U127A	≤ -4.2

Variant	polymerase ribozyme fitness (log ratio)
A47G U56A G62A U78A C87A C99U U134C U146G U148G	≤ -4.2
G48U C75U C87U	≤ -4.2
G48C C85U	-1.95
A47U A52G A119C	-1.05
G48A A60G G84U	-1.73
A47G G133C C149G	-3.65
A47C U77A C93A C116A C149U	≤ -4.2
G48C U78A C96U U101G G128C	≤ -4.2
G48C C76A C93U U127C	≤ -4.2
G48C G80A C85U A120U A137G	≤ -4.2
A47C U61A G62U A64G C85A C123U	≤ -4.2
A47U G124A	0.304
A47C U78A C131U U145A	≤ -4.2
G48U A91U G152U	≤ -4.2
G48U C87G C118U G141U	≤ -4.2
A47C C51U C54U C72U G84U	-3.18
A47C C51U C54U A73C A122U	≤ -4.2
A47G A49U G50C C57U A107C A150C	≤ -4.2
G48C A52C G74A G92C G94C C96U	≤ -4.2
A47U G50A C51A C85G C123U G133C U139A	≤ -4.2
A47G G84U A106G	-2.24
A47C U53A C95U G136C	-3.62
G48C A52G C57A G68U G100U	≤ -4.2
